# Reference: the RNAGym collection of RNA variant scans (doi:10.7554/elife.90254)
# Read counts are not given, so values of variants with three or more changes are uncertain.
# B1: LINE1-mini (parent)
# chain: GGCAGAGCUCAACACAGCGUGGCAAAGUGGCUGUGGCUAGACUGCC
# Variants of: B1
# Test: self-cleavage, relative activity (ratio to wild type); higher = more cleavage; in vitro, sequencing; the parent is a self-cleaving ribozyme
row,Variant,self-cleavage
1,A11U G17C G33A C37A,0
2,A11U G36U G44U C45G,0.02
3,A12C G22A C23G U28C C46U,0.01
4,A12G C23G A25G,0.01
5,A11U G21A G27U,0.39
6,A12C U32A G33A,0.01
7,A12U C23G G27A,0.09
8,A12C G21U G22A C42G,0.01
9,A11U G35U A39C C42U,0.04
10,A12U C18A G40C U43A,0.07
11,A12U U28A G30U,0.58
12,A12U C15G G27U,0.01
13,A12G G29U A39U C46G,0.08
14,A11U G29A U34G,0.04
15,A11U C23U A25G G36A,0
16,A12U G19U G22C G29C G33A,0.02
17,A12G C37A U38G G40U,0.03
18,A12C A25G C45U,0.01
19,A11U U20G U34A U38A C46A,0.01
20,A12U G21U C23G G35U,0.09
21,A12G G40U G44U C46A,0
22,A12U C13G C23U G36U,0.05
23,A11U U20G G40U,0.01
24,A12C G21A U43C,0.06

row,Variant,self-cleavage
1,A12G G22A G27C U28G,0.02
2,A12C G40A A41U G44A,0.01
3,A12C C13G G36U,0.07
4,A11U G19U C23A,0.05
5,A12G G21U A24G U38G,0.02
6,A12U G30U G40A U43C,0.04
7,A12C G35C A41G,0.02
8,A12C A14U G19C A24U G33C G40A,0.01
9,A11U C15U G35A,0.03
10,A12U G21U U34C G36U C46A,0.02
11,A12U G30C U38G,0.02
12,A12G U20C C23U G40A,0.02
13,A12G C15A C45A,0.03
14,A12U G30U C46U,0.52
15,A12G C18A G19U A39U U43A,0.03
16,A12U G17C G40C C46A,0.01
17,A12G C23G C37U G40A,0.04
18,A12U C18A A25U U32A,0.03
19,A12U G29A C46A,0.83
20,A12U A16G G30U,0.15
21,A11U G19A G22U U32G C45G,0.02
22,A11U G17U A39G,0.02
23,A12U C13A A14U A26C U32A G36C U38A A39G C46U,0.03
24,A12C U20G C37A G44U,0.01

row,Variant,self-cleavage
1,A12G A14U A16U G27U U28G,0.01
2,A12C A16U G27A G29U,0.04
3,A12U C37G U38C,0.01
4,A12C C18G G35U,0.04
5,A11U G19A A24C,0.08
6,A12U C23A G29U G33C G40A,0.03
7,A12G C15A U28C C31G,0.02
8,A12G G27U C46U,0.01
9,A12C U28G G30A A39G,0.01
10,A12U G30A G40A,0.08
11,A12C A14G U38A,0
12,A12U C13A A14C A41U,0.03
13,A12G G22C G35C A39G,0.02
14,A12U C18G C46U,0.05
15,A12G G22A C23A U38C,0.01
16,A12G G17A G30A,0
17,A12U C18A C37A A41C,0
18,A12U G29U A39G C45G,0.03
19,A12G C18A G19C U34A,0
20,A12G A25G U34A G40A,0.01
21,A12U G17C G29U,0
22,A11U C31A A41G,0.01
23,A12G C15U U32A,0.15
24,A12U G30C C31A,0.09

row,Variant,self-cleavage
1,A12C G27U G33A G36U G40C C45A,0
2,A12C G30C G33A,0.01
3,A12G G21U C23G U32C,0.02
4,A12U G17C G27U,0.01
5,A12U C15A C23A C45U,0.08
6,A12C A14U G19U,0.03
7,A12U C18A A24U G36A,0.06
8,A11U G29A C31U G44C C46G,0
9,A12G G22A A41G,0.01
10,A11U U20A G21U C23A G40U,0.01
11,A12C A16G C18U A25G A26G,0.03
12,A12U U28A U34G G44C,0.03
13,A11U G17C U20G A24G G30A,0.02
14,A12C G21U C31U A39G U43C,0.01
15,A12G A16C U20A U38A,0.01
16,A12G C13U G29A G30A,0.03
17,A12U G21U G33U,0.04
18,A11U G21A G22A U43G,0
19,A12U A41C C45U,0.05
20,A12U C15U G21A G33A,0.12
21,A12U C15A G29A G35A G44U,0.08
22,A12G A16U U43A,0.01
23,A12G C18G C42U G44C,0.04
24,A12U C15A C45G,0.19

row,Variant,self-cleavage
1,A12U G19A G21U,0.65
2,A12U G35U G36A,0.27
3,A12C G30A U38G G40A,0.01
4,A12G A16G U38A C42A,0.09
5,A12U A14U C15A G21U G30A,0.04
6,A12U C13A A14U G22U G30U U43C,0.04
7,A12C U20C G22C,0
8,A12U U32A G35A,0.02
9,A12U G44A C46A,0.07
10,A12G A14G G19A,0.01
11,A11U U38A G44C,0
12,A12U U28G G29A G33C,0.02
13,A12C U38G G44A C45G,0
14,A12U A16C C23A C42G,0.06
15,A12G G17U U20A U28C,0.03
16,A12G G17C C18U G22A G29A U34A,0
17,A11U U20A C31U,0.04
18,A12C C18A A24C,0.02
19,A12G G29U C46U,0.03
20,A12G G21C G22A G29U G30C,0.02
21,A12U C42G G44A,0.03
22,A12U A14U A26G G29U G40A,0.1
23,A12C G35U G40U C45A,0.06
24,A12G G22A G33C C42G C46A,0

row,Variant,self-cleavage
1,A12U G17A U20G G21A U32C,0
2,A11U G22C G29A,0.25
3,A12G C15G G33A C37A,0.02
4,A12G G21C C23G A24C,0.02
5,A11U U20C A26G G29U,0.01
6,A11U G19U C45U,0.3
7,A12C C15A G29C G30C,0.03
8,A12U G22U C46U,0.08
9,A12G C13G G30U U38A,0.06
10,A12G G29A G40U G44U,0.01
11,A11U G17C G19C C45G,0.01
12,A12G G17A C45G,0.02
13,A12G G27U U32A C37A C42A,0.05
14,A12U A25G U32C G35C U43G,0.01
15,A12U C13G C23U C37G,0.02
16,A11U C23G A25U A26G,0.26
17,A12G C23G C31U G35A C45U,0.01
18,A12U C18G G21A G30A,1.21
19,A12U A14U G22U U32A U34C C42A,0.03
20,A12G A14C G30C G36A A39G,0.06
21,A12C U20C A24U G35A,0.12
22,A12C C31U U34C C42A,0.01
23,A12G C13U A14U,0.03
24,A12G G17U G30U U34G U38G A41U C46U,0.27

row,Variant,self-cleavage
1,A11U C18U A26C U28A G35C U38C A39U,0
2,A12C G19A A25U G29A,0.01
3,A12G C23G G30C,0.2
4,A12C A25U G40U C45G,0.06
5,A12U G35C U43G,0.01
6,A11U G35A U43A,0.03
7,A12C G30A C31A,0.07
8,A12C C23A G36A,0.04
9,A12U C18A G19C G27C,0.08
10,A12C A16C G30C C31U,0.02
11,A12C G17U C23A,0.02
12,A11U C31G A39C C45U,0.03
13,A12U G33U G35A,0
14,A11U G19A G33A,0.03
15,A11U G33U G35U,0.04
16,A11U G29A C37A C45U,0
17,A12G C18G C37A U38C,0
18,A12G G17A G29C G40A C42U,0.01
19,A12C C18U G36U,0.01
20,A11U G36A A41C,0.04
21,A12G G29A U32C C45A,0.05
22,A12U U20G G35U,0.03
23,A12C G19A G27A C31U G36A G40C,0.02
